Measurements reported in PubChem BioAssay AID1345083 (National Center for Advancing Translational Sciences (NCATS), 2018).
Hit rate of the full screen: of about 94,000 compounds, about 6,200 (6.6%) were called active. Inconclusive results, whose numbers are uncertain, are shown with a selection of clear calls. Calls come from the whole dose curve; as a rule, active = well fitted inhibition curve with a large enough effect; inconclusive = small, poorly fitted or top-dose-only effect; inactive = flat fitted curve, though single readings scatter. Where the call is inconclusive, the potency comes from a doubtful curve fit.

Assay: Cytotoxic Profiling in HEK 293 Cell Line of Diverse Libraries Using Quantitative High-Throughput Screening; note: nearly all actives have a fitted effect of over 60% in size
Settings: HEK 293 viability, ATP luminescence (CellTiter-Glo), 48-72 h; series mostly up to 115 µM
How it was run: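 HEK 293 cells at 250 cells/well were exposed to compounds by pintool transfer for 48 or 72 hr at 37 degree Celsius, 5% CO2. Viability was read as ATP-coupled luminescence with CellTiter-Glo after 10 min at room temperature.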
Potency is the fitted concentration of half-maximal effect; tags give direction and shape of the fitted curve.

SMILES	Potency
CN(Cc1cc(-c2ccccc2)n[nH]1)c1cc(C2CC(N)C2)ncn1 (centres undefined)	inconclusive: 39.8 µM [inhibitor, full curve, poor fit]
Cc1ccc(C(=O)N2CCN(Cc3ccccc3-c3cccnc3)CC2)cc1	inconclusive: 63.1 µM [inhibitor, partial curve, poor fit]
N#Cc1ccc(CN2CCC(c3nc4ncccc4[nH]3)C2)cc1 (centres undefined)	inconclusive: 126 µM [inhibitor, single point]
CCOc1ccccc1NC(=O)Cn1c(-c2ccccc2)nc(C)c(CCO)c1=O	inactive
CCn1ccc(C(=O)NCC2Cn3cccc3CN2Cc2ccccc2)n1 (centres undefined)	inconclusive: 89.1 µM [inhibitor, partial curve, poor fit]
COc1ccc(CN2Cc3cc(NC(=O)Cc4ccc(F)cc4)ccc3OCC2=O)c(OC)c1	inconclusive: 56.2 µM [inhibitor, partial curve, poor fit]
CCOC(=O)CN1CCN(C(=O)CCc2cc3cc(OC)ccc3[nH]c2=O)CC1	inactive
CC1=C[C@@H](CN2CCN(CCO)CC2)[C@H](C(C)C)C[C@H]1Cc1nnc(-c2ccc(N(C)C)cc2)o1	active: 14.1 µM
O=C(c1ccc2c(c1)OCO2)N1CCCN(C(=O)C2CC2)c2ccccc21	inconclusive: 56.2 µM [inhibitor, partial curve, poor fit]
CC(C)CN1CCC(O)(c2csc(CN3CCN(c4ccccn4)CC3)n2)CC1	inconclusive: 100 µM [inhibitor, partial curve, poor fit]
Cc1cn2nc(C(=O)NC3CCCC3)cc2c(N2CCSCC2)n1	inconclusive: 56.2 µM [inhibitor, partial curve, poor fit]
CC(C)C[C@@H]1N[C@H](C(=O)NC2CCC2)Cc2c[nH]c3cccc1c23	active: 44.7 µM
COc1cc(OC)cc(C(=O)N2CCCC(c3noc(COc4ccccc4F)n3)C2)c1 (centres undefined)	inconclusive: 89.1 µM [inhibitor, single point]
Cc1cccc(CN2CCCC(c3nc(C(C)C)no3)CCNC(=O)CC2)c1 (centres undefined)	inconclusive: 50.1 µM [inhibitor, partial curve, poor fit]
O=C1N(C2CCOCC2)CCCC12CCN(c1ccc(Cl)cn1)C2 (centres undefined)	inconclusive: 25.1 µM [inhibitor, full curve, poor fit]
Cc1ccc(-c2cc3c(=O)n(CCNC(=O)c4cc(Cl)ccc4F)ccn3n2)c(C)c1	inconclusive: 89.1 µM [inhibitor, single point]
Cc1ccc(NC(=O)c2nc3sccn3c2-c2ccc(C(F)(F)F)cc2)cc1	inconclusive: 22.4 µM [inhibitor, full curve, poor fit]
CN1C[C@@H](NC(=O)c2ccccn2)C[C@H]1c1nc(-c2ccc(Cl)cc2)no1	active: 89.1 µM
Cc1nnnn1CCCN1CCC2(CC1)CNC(C(=O)O)C2 (centres undefined)	inactive
Cc1ccc(S(=O)(=O)N2CCCC(Cn3c(C4CC4)nc4cccnc43)C2)cc1F (centres undefined)	inconclusive: 79.4 µM [inhibitor, partial curve, poor fit]

SMILES	Potency
Cc1ccc(C)c([S+](=O)([O-])c2nnn3c2nc(NC2CCCC2)c2ccccc23)c1	inconclusive: 50.1 µM [inhibitor, partial curve, poor fit]
Cc1ccc(C2Cn3nnc(C(=O)N4CCN(C(=O)c5cccc(F)c5)CC4)c3CO2)cc1 (centres undefined)	inconclusive: 89.1 µM [inhibitor, single point]
CN1CCCCCCN(Cc2ccccc2)[C@H]2CCC[C@H]2C1=O	inconclusive: 56.2 µM [inhibitor, partial curve, poor fit]
COc1ccc(-c2c(C(=O)NCc3ccccc3F)nc3sccn23)cc1	inconclusive: 126 µM [inhibitor, single point]
O=C(NCc1cccc(Cl)c1)C1CCCN1C(=O)c1cccc(-c2cccnc2)c1 (centres undefined)	inconclusive: 50.1 µM [inhibitor, partial curve, poor fit]
Cc1ccccc1C(=O)N1CCC(N2C(=O)c3c(c(C)nn3-c3ccccc3)C2C2CC2)CC1 (centres undefined)	inconclusive: 39.8 µM [inhibitor, partial curve]
COc1ccc(-c2noc(CC3CCN(C(=O)CCc4ccccc4)CC3)n2)cc1	active: 35.5 µM
O=[S+]([O-])(NC1CCN(c2ccnc3ccnn23)C1)c1ccccc1 (centres undefined)	inconclusive: 50.1 µM [inhibitor, partial curve, poor fit]
CCCNC(=O)c1cccc2c1CCN2C(=O)Nc1cccc(C)c1	inconclusive: 89.1 µM [inhibitor, single point]
CS(=O)(=O)N1C[C@H]2CCN(Cc3cc(Cl)ccc3F)C[C@H]21	inconclusive: 89.1 µM [inhibitor, partial curve, poor fit]
CCOCCCNC(=O)C1CCN(Cc2ccccc2-c2ccccc2F)CC1	inconclusive: 89.1 µM [inhibitor, single point]
CN(Cc1ccncc1)Cc1cccc(C(F)(F)F)c1	inactive
O=C(NC1CC1)c1ccc2nnc(-c3cc(C(F)(F)F)cc(C(F)(F)F)c3)n2c1	inconclusive: 35.5 µM [inhibitor, partial curve, poor fit]
CNC(=O)c1cc(C2CC2)nc2onc(C3CCN([S+](=O)([O-])c4c(C)noc4C)C3)c12 (centres undefined)	inactive
COc1ccc(Cl)cc1-c1ccc2c(c1)C(=O)N1CCN(C(=O)CSC)C[C@@H]1C(=O)N2	inconclusive: 56.2 µM [inhibitor, partial curve, poor fit]
COC1CCC12CCN(C(=O)c1ccc3[nH]ccc3c1)CC2 (centres undefined)	inconclusive: 100 µM [inhibitor, single point]
COc1ccccc1N1CCN(C(=O)C2CCCN(S(C)(=O)=O)CCC(=O)NCC2)CC1 (centres undefined)	inactive
CCOC(=O)c1sc(NC(=O)C2CC(=O)N(c3n[nH]c4ccccc34)C2)nc1C (centres undefined)	inconclusive: 89.1 µM [inhibitor, single point]
CN1CCc2c([nH]c3ccccc23)C12CCN(C(=O)C1CC1)CC2	inconclusive: 70.8 µM [inhibitor, partial curve, poor fit]
